Results published in paper PMC10518940.

Molecular target: T1, HA-LPA1-Rluc8 (human), Q92633
T1 chain: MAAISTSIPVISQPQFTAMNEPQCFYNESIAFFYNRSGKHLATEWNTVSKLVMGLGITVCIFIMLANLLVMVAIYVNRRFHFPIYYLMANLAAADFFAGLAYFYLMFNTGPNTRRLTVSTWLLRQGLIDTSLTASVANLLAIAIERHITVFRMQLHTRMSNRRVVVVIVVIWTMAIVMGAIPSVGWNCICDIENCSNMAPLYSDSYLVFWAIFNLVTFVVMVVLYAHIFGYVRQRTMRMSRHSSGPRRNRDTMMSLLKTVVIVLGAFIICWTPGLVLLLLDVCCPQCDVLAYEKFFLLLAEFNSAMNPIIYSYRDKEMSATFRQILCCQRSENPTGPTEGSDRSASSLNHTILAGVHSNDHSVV
Assay: FRET or BRET; BRET2 saturation in HEK293A cells: fixed amount of GPCR-Rluc8 plasmid, increasing amounts of GPCR-GFP2 plasmid (0 to 390 ng); coelenterazine 400a 5 μM; BRET50 from the net BRET ratio
Conditions: remark: other sources report otherwise

BRET50: 0.629
B1: Flag-LPA1-GFP2, Q92633 1-364 (receptor)
chain: T1 chain
